Laboratory results as given in PubChem BioAssay AID624417 (National Center for Advancing Translational Sciences (NCATS), 2012).
The whole screen tested about 410,000 compounds, of which about 6,400 (1.6%) were called active. The inconclusive results got no clear call from the source; some entries with a clear call stand among them for comparison. The call rests on the fitted dose curve; in most records, active means well fitted inhibition curve with a large enough effect; inconclusive means small, poorly fitted or top-dose-only effect; inactive means no such curve, though single readings can be large or run the other way. No potency is given beside an inconclusive call; the fits are too rough.

target: Glucagon-like peptide 1 receptor (Homo sapiens) (UniProt P43220); test: qHTS of GLP-1 Receptor Inverse Agonists (Inhibition Mode); conditions: HEK293 GLP-1R CRE-luciferase, luminescence, 24 h, GLP-1R form is constitutively active; series mostly up to 38.3 µM; further: nearly all actives have a fitted effect of over 55% in size
Outline: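 HEK293 cells stably co-expressing constitutively active GLP-1R and a cAMP-responsive luciferase reporter were seeded in DMEM with 10% Nu serum, given compounds after 12 h, and incubated 24 h at 37 deg C. Luminescence was then read.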
Potency means the concentration at half of the fitted maximal effect; tags describe the fitted curve by direction and shape.

Chain of UniProt P43220 (P43220 whole entry, looked up): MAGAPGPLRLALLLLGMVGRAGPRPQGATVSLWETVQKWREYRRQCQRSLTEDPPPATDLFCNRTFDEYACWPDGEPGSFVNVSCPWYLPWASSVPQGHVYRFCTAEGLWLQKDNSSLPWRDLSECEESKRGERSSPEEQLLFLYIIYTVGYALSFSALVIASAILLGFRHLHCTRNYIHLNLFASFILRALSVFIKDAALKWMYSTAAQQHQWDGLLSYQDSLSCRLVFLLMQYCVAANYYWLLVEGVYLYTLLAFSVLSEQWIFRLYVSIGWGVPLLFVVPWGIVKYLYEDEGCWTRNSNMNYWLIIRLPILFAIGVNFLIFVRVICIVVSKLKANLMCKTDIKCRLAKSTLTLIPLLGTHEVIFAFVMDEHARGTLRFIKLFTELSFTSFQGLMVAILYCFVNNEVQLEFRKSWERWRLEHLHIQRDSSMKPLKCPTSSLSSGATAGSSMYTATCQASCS

Row | Compound | Potency
1 | CCCNC(=O)CN1CCN(c2cc3ccccc3c(Cl)n2)CC1 | inconclusive [inhibitor, single point]
2 | CCn1c(/C=C/Nc2ccccc2)[n+](CC)c2cc(Cl)c(Cl)cc21 | inconclusive [inhibitor, single point]
3 | Cc1cccc(C2c3[nH]c4ccccc4c3CCN2C(=O)c2cc(C(C)C)nc(N)n2)n1 (configuration not stated) | inconclusive [inhibitor, single point]
4 | CCOC(=O)C1=C[C@@H](c2ccccc2)N(S(=O)(=O)c2ccc(C)cc2)[C@H]1c1cccc(Cl)c1 | inconclusive [inhibitor, full curve, poor fit]
5 | COc1ccc(CNC(=O)CCSCc2ccccc2C)cc1 | inconclusive [inhibitor, single point]
6 | Cc1c(C#N)c2ncnc(-c3ccccc3)c2n1-c1ccccc1 | inactive
7 | Cc1ccc(CNC(=O)c2ccc(CSCc3cccc(C)c3)o2)cc1 | inconclusive [inhibitor, single point]
8 | C=CCC[C@@H](Cc1ccc(F)cc1)C(=O)OC[C@@H](NC(=O)[C@@H](CC=C)CC(=O)N[C@@H](CO)Cc1ccccc1)C(C)(C)C | active: 10 µM
9 | CCC(C(=O)NC1CCCC1)N(Cc1ccco1)C(=O)Cn1nnc(-c2ccc(C)cc2)n1 (configuration not stated) | inconclusive [inhibitor, single point]
10 | O=C(CSc1ccccn1)Nc1ccc2c(c1)CCC2 | inconclusive [inhibitor, single point]
11 | O=C1OC(c2ccccc2)(c2ccccc2)c2ccccc21 | active: 7.94 µM
12 | CC1(c2ccccc2)CC(C)(C)N(C(=O)c2cccc(Cl)c2)c2ccccc21 (configuration not stated) | inconclusive [inhibitor, single point]
13 | O=C(Nc1ncc([N+](=O)[O-])s1)c1ccc2c(c1)OCO2 | inconclusive [inhibitor, full curve, poor fit]
14 | COc1ccc(Oc2ncnc3sccc23)cc1 | inconclusive [inhibitor, single point]
15 | CC1(OC(=O)CCc2ccccc2)C(=O)C=C2C=C(c3ccc(C#N)cc3)N(Cc3ccccc3)C=C2C1=O (configuration not stated) | inconclusive [inhibitor, partial curve, poor fit]
16 | N=c1c2c(-c3ccccc3)c(-c3ccccc3)n(Cc3ccccc3)c2ncn1CCCO | inconclusive [inhibitor, single point]
17 | CCC1(C)Cc2ccccc2-c2nc(NCCCO)[nH]c(=O)c21 (configuration not stated) | inconclusive [inhibitor, single point]
18 | CCCCN(C)CCNC(=O)c1cc2cc3ccc(OC)cc3nc2o1 | inconclusive [inhibitor, single point]
19 | Cc1cccc(-c2noc(-c3ccc(F)cc3)n2)c1 | inactive
20 | CCOC(=O)c1sc(C)c2c1NC(C)(c1ccccc1)NC2=O (configuration not stated) | inactive
21 | COc1ccc(C(CCNCc2ccccc2F)c2ccc(F)cc2)cc1 (configuration not stated) | inconclusive [inhibitor, partial curve, poor fit]

Row | Compound | Potency
22 | CN(c1ccccc1)S(=O)(=O)c1ccc(Cl)nc1 | inactive
23 | NS(=O)(=O)c1cccc(Nc2nc3ccccc3nc2NS(=O)(=O)c2ccc(Cl)cc2)c1 | inconclusive [inhibitor, partial curve, poor fit]
24 | COc1cc(NC(=O)c2ccccc2)c(OC)cc1NC(=O)Cc1ccc(Br)cc1 | inactive
25 | O=C(CCc1ccccc1)NNC(=O)Nc1ccc(Cl)cc1 | inconclusive [inhibitor, full curve]
26 | COc1ccc(Cl)cc1-c1cc(C(=O)NCc2ccccc2)[nH]n1 | inconclusive [inhibitor, partial curve, poor fit]
27 | CCOC(=O)CC(=O)CSc1nc2ccsc2c(=O)n1Cc1ccccc1 | inactive
28 | CC12CCCC[C@@H]1CCC1C2CCC2(C)C1CC[C@@]2(O)CNCCO (some centres not stated) | inconclusive [inhibitor, partial curve, poor fit]
29 | CCN(CC)CC#CCC(O)(c1ccccc1)c1ccc(Br)cc1 (configuration not stated) | active: 10 µM
30 | COc1ccc(-n2cc(-c3ccccc3)c3c(Nc4ccc(OC)c(OC)c4)ncnc32)cc1 | inactive
31 | O=C(CN1CCCCCC1)Nc1ccc(Br)cc1 | inactive
32 | NC(=O)COC(=O)c1ccccc1Nc1ccc(SC(F)F)cc1 | inconclusive [inhibitor, single point]
33 | Cc1ccc(CN2CC(=O)N3[C@H]4c5cc(C)ccc5OC[C@@H]4[C@H](c4ccccc4)[C@]3(C)C2=O)cc1 | inconclusive [inhibitor, single point]
34 | Nc1nc(Sc2c([N+](=O)[O-])cc(C(F)(F)F)cc2[N+](=O)[O-])n[nH]1 | inconclusive [inhibitor, single point]
35 | COc1ccc(CCNC(=S)N2CCC(C(=O)c3ccc(F)cc3)CC2)cc1OC | inconclusive [inhibitor, partial curve, poor fit]
36 | CCOc1ccc(NC(=O)c2ccc(F)cc2F)cc1 | inactive
37 | CCN(CC)S(=O)(=O)c1cccc(NC(=O)CNc2cccc(S(=O)(=O)N3CCCC3)c2)c1 | inconclusive [inhibitor, partial curve, poor fit]
38 | Cc1ccc(/C=N/NC(=O)CSc2nnc(-c3ccc(Cl)cc3)n2-c2ccccc2)o1 | inconclusive [inhibitor, partial curve, poor fit]
39 | COc1cccc(CNc2nc3cc(-c4cscc4C)sc3c(=O)n2C)c1 | inconclusive [inhibitor, full curve, poor fit]
40 | CC1CC(C)CN(C(=O)C(C)N2CCN(S(=O)(=O)c3ccc(Br)s3)CC2)C1 (configuration not stated) | inconclusive [inhibitor, partial curve, poor fit]
41 | O=C(C(=O)N1CCN(c2ccccc2F)CC1)c1cn(CC(=O)N2CCCC2)c2ccccc12 | inactive
42 | C(=NOCc1ccccc1)c1ccncc1 | inactive
